Source: PubChem BioAssay AID1347165 (National Center for Advancing Translational Sciences (NCATS), 2019)
Hit rate of the full screen: of about 220,000 compounds, about 5,700 (2.6%) were called active. This list was built around the results that the source calls inconclusive (neither active nor inactive); the mix of calls is not that of the screen. Calls come from the whole dose curve; as a rule, active = well fitted inhibition curve with a large enough effect; inconclusive = small, poorly fitted or top-dose-only effect; inactive = no such curve, though single readings can be large or run the other way. Potencies of inconclusive entries are doubtful fits and often do not repeat.

Biological target: Lysine-specific demethylase 5B (Homo sapiens) (UniProt Q9UGL1)
Sequence of UniProt Q9UGL1 (Q9UGL1 whole entry, looked up): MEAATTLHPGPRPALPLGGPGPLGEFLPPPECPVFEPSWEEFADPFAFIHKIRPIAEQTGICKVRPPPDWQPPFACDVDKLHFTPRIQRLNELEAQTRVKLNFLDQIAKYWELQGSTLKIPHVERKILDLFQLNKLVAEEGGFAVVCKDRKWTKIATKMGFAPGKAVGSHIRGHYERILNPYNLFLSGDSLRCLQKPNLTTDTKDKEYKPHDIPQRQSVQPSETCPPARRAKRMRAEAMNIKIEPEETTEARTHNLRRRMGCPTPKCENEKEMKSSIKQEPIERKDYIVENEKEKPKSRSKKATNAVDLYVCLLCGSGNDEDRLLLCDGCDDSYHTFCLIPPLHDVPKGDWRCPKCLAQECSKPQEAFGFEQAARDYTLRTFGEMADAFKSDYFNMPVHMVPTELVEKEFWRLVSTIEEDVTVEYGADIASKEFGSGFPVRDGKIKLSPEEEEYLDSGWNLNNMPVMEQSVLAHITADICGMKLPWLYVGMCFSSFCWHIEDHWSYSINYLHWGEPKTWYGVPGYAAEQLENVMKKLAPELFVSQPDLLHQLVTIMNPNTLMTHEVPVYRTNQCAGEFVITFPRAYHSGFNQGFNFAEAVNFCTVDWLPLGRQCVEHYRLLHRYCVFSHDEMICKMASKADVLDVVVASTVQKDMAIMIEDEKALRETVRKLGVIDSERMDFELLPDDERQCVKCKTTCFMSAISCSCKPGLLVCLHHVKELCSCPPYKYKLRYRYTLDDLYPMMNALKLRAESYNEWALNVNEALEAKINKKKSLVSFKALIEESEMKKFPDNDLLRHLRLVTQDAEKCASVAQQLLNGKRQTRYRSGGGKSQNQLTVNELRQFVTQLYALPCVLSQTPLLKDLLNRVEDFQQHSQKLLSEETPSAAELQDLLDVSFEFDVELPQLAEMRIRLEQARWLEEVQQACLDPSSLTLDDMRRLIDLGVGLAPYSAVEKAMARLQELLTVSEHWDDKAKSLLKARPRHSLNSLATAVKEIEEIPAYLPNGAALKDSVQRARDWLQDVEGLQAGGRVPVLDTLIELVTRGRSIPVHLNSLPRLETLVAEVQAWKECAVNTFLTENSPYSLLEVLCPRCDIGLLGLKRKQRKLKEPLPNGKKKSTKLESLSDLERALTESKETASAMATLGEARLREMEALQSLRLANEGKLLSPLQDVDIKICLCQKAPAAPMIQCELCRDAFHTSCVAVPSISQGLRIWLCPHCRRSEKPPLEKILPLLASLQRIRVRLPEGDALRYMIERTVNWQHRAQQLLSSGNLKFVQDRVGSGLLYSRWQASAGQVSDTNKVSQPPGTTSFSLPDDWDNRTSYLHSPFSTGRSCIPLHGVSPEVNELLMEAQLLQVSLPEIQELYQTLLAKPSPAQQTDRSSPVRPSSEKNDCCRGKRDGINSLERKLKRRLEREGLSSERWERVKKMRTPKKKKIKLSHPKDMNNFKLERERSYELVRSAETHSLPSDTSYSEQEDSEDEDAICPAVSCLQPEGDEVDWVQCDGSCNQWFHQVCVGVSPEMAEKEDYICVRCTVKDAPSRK
Test: Primary screen for KDM5B Histone Demethylases FDH-coupled qHTS; note: nearly all actives have a fitted effect of over 70% in size; for activity change, negative = inhibition: 0% is about no effect
Conditions: FDH-coupled NADH fluorescence (FDH is formaldehyde dehydrogenase); activity change, negative = inhibition: at 57.7 µM (top of the series) unless noted
In short: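 Here, H3K4me3 peptide (12.5 µM in substrate mix) is demethylated by KDM5BΔAP, 200 nM final, after 10 min compound exposure. Formaldehyde product is coupled through FDH (0.25 U/mL in mix) to NADH fluorescence; 30-min ΔRFU feeds dose-response curves.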
Potency is the fitted concentration of half-maximal effect; tags give direction and shape of the fitted curve.

| SMILES | Potency | activity change, negative = inhibition |
| --- | --- | --- |
| C[S+](=O)([O-])c1ccc(-c2cc3c(cn2)CN(Cc2ccccc2)CCN3)cc1 | active: 28.2 µM |  |
| COC(=O)[C@@H]1Cc2c([nH]c3ccccc23)[C@H]2C[C@@H](NCCO)C[C@@H](c3ccc(F)cc3)N21 | inconclusive: 12.6 µM [inhibitor, partial curve] |  |
| N#Cc1cccc2[nH]ccc12 | inconclusive: 28.2 µM [inhibitor, partial curve, poor fit] |  |
| CCOc1ccc(C(C(=O)NCC2CCCO2)N(CCc2cccc(C)c2)C(=O)c2snc(C(N)=O)c2N)cc1 (centres undefined) | inconclusive: 20 µM [inhibitor, partial curve, poor fit] |  |
| O=C(CSc1nc2c([nH]c3ccccc32)c(=O)n1-c1ccccc1F)Nc1ccccc1C(F)(F)F | inconclusive: 3.98 µM [inhibitor, partial curve, poor fit] |  |
| CCOCCNc1nccc(C2(c3ccccc3Cl)CCNCC2)n1 | inconclusive: 28.2 µM [inhibitor, partial curve, poor fit] |  |
| O=C1NCCCCCCN(Cc2ccncc2)[C@@H]2CN(S(=O)(=O)c3ccccc3)CC[C@H]12 | inconclusive: 20 µM [inhibitor, single point] |  |
| Cn1c(Oc2ccc(Cl)c(Cl)c2)c(C#N)c(=O)n(C)c1=O | inconclusive: 20 µM [inhibitor, partial curve, poor fit] |  |
| CC1=C[C@@H](CNC(=O)c2cnccn2)[C@H](C(C)C)C[C@H]1Cc1nc2ccccc2n1C | inconclusive: 17.8 µM [inhibitor, partial curve, poor fit] |  |
| COc1cc(CNc2ccc3c(c2)ncn3C(C)C)cc(OC)c1OC | inconclusive: 28.2 µM [inhibitor, partial curve, poor fit] |  |
| Cc1cccn2c(CNC3CCCc4ccccc43)c(C(=O)N3CCOCC3)nc12 (centres undefined) |  | inactive: -10.7% |
| COc1cc(/C=C/c2nc(C#N)c(NCCCN(C)C)o2)cc(OC)c1OC | inconclusive: 22.4 µM [inhibitor, partial curve, poor fit] |  |
| COc1ccc(-c2cn3nc(N4CCCC(C(=O)NCc5ccccc5C)C4)sc3n2)cc1 (centres undefined) |  | inconclusive: -30.1% [inhibitor] |
| CC(=O)NC(Sc1ccc(Cl)cc1)C(=O)c1ccccc1 (centres undefined) |  | inactive: 2.47% |
| Cc1ccc2[nH]c3ccccc3c(=O)c2c1 | inconclusive: 14.1 µM [inhibitor, partial curve, poor fit] |  |
| CCN(CC)C(=O)Cn1c(=O)cc(C)c2c(C)nn(C)c21 |  | inconclusive: -33.2% [inhibitor] |
| COc1ccc(-c2[nH]nc3ncc(C(=O)NCCc4ccccc4)nc23)c(C)c1 | inconclusive: 39.8 µM [inhibitor, partial curve, poor fit] |  |
| CCOC(=O)c1cn(C)nc1S(=O)(=O)N1CCCC1 |  | inactive: -11.7% |
| Cc1ccc(S(=O)(=O)c2nc(-c3cccc(C)c3)oc2N2CCCCC2)cc1 | inconclusive: 31.6 µM [inhibitor, partial curve, poor fit] |  |
| O=S(=O)(Nc1cccc(-c2ccc(N3CCCC3)nn2)c1)c1ccc(F)cc1F | inconclusive: 14.1 µM [inhibitor, partial curve, poor fit] |  |
| CCc1ccccc1NC(=O)CC1CC2CCC1C2 (centres undefined) |  | inactive: 22.3% |
| Cc1nnc(CN(C)c2ccc(-c3nc(-c4cccc(Cl)c4)no3)cn2)o1 | active: 28.2 µM |  |

| SMILES | Potency | activity change, negative = inhibition |
| --- | --- | --- |
| CCn1cnc2c1c(=O)n(CC(=O)NCC1CCCO1)c(=O)n2Cc1ccccc1 (centres undefined) |  | inactive: 20.2% |
| CCOC(=O)CSc1nc2c(c(=O)[nH]c(=O)n2C)n1CCCc1ccccc1 |  | inactive: -5.48% |
| COc1cccc(CNC(=O)Cn2cccc2-c2nc(-c3ccc4c(c3)OCO4)no2)c1 | active: 28.2 µM |  |
| CN1C(=O)c2cccn2CC1CNC(=O)c1ccoc1 (centres undefined) |  | inactive: -25.7% |
| COc1ccc(CNC(=O)C2CCN(c3nnc(-n4cccc4CNc4ccc(C)cc4)s3)CC2)c(OC)c1 | inconclusive: 10 µM [inhibitor, partial curve, poor fit] |  |
| COc1ccc(OC)c(C2CCCN2C(=O)NCCn2ccnc2)c1 (centres undefined) |  | inactive: 4.17% |
| CCOCCCNc1ncnc2c1CN(C1CCNCC1)C(=O)CN2C | inconclusive: 50.1 µM [inhibitor, partial curve] |  |
| CCOC(=O)CNC(=O)Cc1ccc(OC)cc1 |  | inactive: 10.5% |
| Cc1ccc2c(CN3CCCCC3CCO)cc(=O)oc2c1 (centres undefined) | inconclusive: 39.8 µM [inhibitor, single point] |  |
| O=C(Nc1cccc(-c2nnc3n2CCCC3)c1)c1ccc[nH]c1=O |  | inactive: 2.62% |
| Cc1onc(-c2ccccc2F)c1C(=O)NCc1cccs1 |  | inactive: 2.2% |
| COc1cc(-c2ccnc3nc(C(C)C)nn23)cc(OC)c1OC | inconclusive: 15.8 µM [inhibitor, partial curve, poor fit] |  |
| Fc1ccccc1CNCCOc1ccccn1 |  | inactive: -8.49% |
| COc1cccc(C(=O)Nc2ccc(-c3nc4ccccc4s3)cc2Cl)c1 | inconclusive: 5.62 µM [inhibitor, partial curve, poor fit] |  |
| O=C(O)CCc1ncc(-c2ccccc2F)o1 |  | inactive: 20.6% |
| O=c1[nH]c(=O)n(CCc2ccccc2)c2nccc(-c3ccc(F)cc3)c12 |  | inactive: 2.41% |
| COc1ccc(C(=O)/C=C/c2cn(CC(O)CN(CC(C)C)CC(C)C)c3ccccc23)cc1 (centres undefined) | inconclusive: 17.8 µM [inhibitor, partial curve, poor fit] |  |
| CCCC(=O)N(c1ccc2oc(C)c(C(C)=O)c2c1)S(=O)(=O)c1ccc(C)cc1 | inconclusive: 2.51 µM [inhibitor, full curve, poor fit] |  |
| COc1ccc(/C=N/N(C)C2=NS(=O)(=O)c3ccccc32)cc1 | inconclusive: 25.1 µM [inhibitor, partial curve, poor fit] |  |
| COc1cc2oc(=O)c(CC(=O)N3CCCCC3)c(C)c2cc1OC | inconclusive: 22.4 µM [inhibitor, partial curve, poor fit] |  |
| Cc1ccccc1-c1cc(=O)c2cc(NC(=O)c3ccco3)ccc2o1 | inconclusive: 1.78 µM [inhibitor, full curve, poor fit] |  |
| CN1C(=O)c2ccccc2Sc2ccc(NC(=O)COc3ccccc3)cc21 |  | inactive: -29.6% |
